Data on two molecules can be found in PMC11840927.

The target in assay [1] is T1, E. coli cysteine desulfurase IscS without a His-tag (E. coli), P0A6B7.
T1 chain: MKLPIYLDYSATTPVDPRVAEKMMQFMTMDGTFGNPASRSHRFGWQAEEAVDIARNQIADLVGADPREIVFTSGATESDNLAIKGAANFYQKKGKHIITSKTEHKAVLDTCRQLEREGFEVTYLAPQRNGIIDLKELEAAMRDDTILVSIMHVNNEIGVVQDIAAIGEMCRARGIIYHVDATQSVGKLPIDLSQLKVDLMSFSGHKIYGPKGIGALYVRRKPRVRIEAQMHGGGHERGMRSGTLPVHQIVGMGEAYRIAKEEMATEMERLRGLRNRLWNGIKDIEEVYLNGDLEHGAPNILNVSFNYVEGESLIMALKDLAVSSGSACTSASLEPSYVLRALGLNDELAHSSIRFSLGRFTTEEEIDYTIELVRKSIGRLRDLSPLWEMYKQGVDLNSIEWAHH
Nature of the assay: native MS; protomer exchange: 1:1 mix of 15N- and 14N-labelled SDAec (or His-tagged and untagged IscS), room temperature, 200 mM ammonium acetate pH 8.5, EMR Orbitrap; ratio of exchanged dimer to the sum of unexchanged dimers; α2β2γ2 (or IscS dimer) to protomers and back. The note with it: remark: other sources report otherwise.

Assay [2] deals with T2, E. coli cysteine desulfurase IscS with a His-tag (E. coli), P0A6B7.
T2 chain: T1 chain
The description is as above. To be noted: remark: other sources report otherwise.

B1: E. coli cysteine desulfurase IscS without a His-tag, P0A6B7 1-404 (enzyme)
chain: T1 chain
modifications: here or on the partner: PLP cofactor; PLP cofactor
As to B1, the stoichiometry N in assay [1] was 2. For the same molecule, the exchanged-to-unexchanged ratio at 120 min in assay [2] was found to be 0.31.

B2: E. coli cysteine desulfurase IscS with a His-tag, P0A6B7 1-404 (enzyme)
chain: T1 chain
modifications: here or on the partner: PLP cofactor; PLP cofactor
Take B2: the stoichiometry N in assay [2] was determined as 2.
